According to the RNAGym collection of RNA variant scans (doi:10.7554/elife.90254):
The source gives no read counts; variants with many changes may rest on few reads.

B1: LINE1-mini (parent)
chain: GGCAGAGCUCAACACAGCGUGGCAAAGUGGCUGUGGCUAGACUGCC

Variants of: B1
Assay: self-cleavage, relative activity (ratio to wild type); higher = more cleavage; in vitro, sequencing; the parent is a self-cleaving ribozyme
Work on GGCAGAGCUCAACACUGCGUAGCAAAGUGGCGGUGGCUAGACUGCC yielded a self-cleavage of 1.63.
For GGCAGAGCACAACACAGCGUGGCUACCUGGGUGUGGCUAGACUGCC, the self-cleavage was 0.
GGCAGAGCUCAACACAGCGUGGCAGAGUGGCUGUGGCAAAACUGCC showed a self-cleavage of 0.03.
For GGCGGAGCUCAACACAGGGUGGCAAAGUGGCUGUGGCUAGACUGUC, the self-cleavage was 0.08.
Variant GGCAGAGCUCAACACAUCGUUGCAAAGUGGCUGGGGCUAGACUGCC has a self-cleavage of 0.03.
GGCAGAGCUCAACACAGGGUGGCAAAGUGGCUGCGGCUAGCCUGCC gave a self-cleavage of 0.07.
In the case of GGCAGAGCUAAACACAACGAGGCAAAGUGGCUGUGGCUAGACUGCC, the self-cleavage is reported as 0.02.
GGCAGCGCUCAACAGAGCGCGGCUAAUUGGCUGUGGCUAGACUGCC gave a self-cleavage of 0.01.
GGCAGAGCUCGACACCGCAUGGCAAAGUGUCUGUGGCUAGACUGCC showed a self-cleavage of 0.
In the case of GGCAGCGCUCAACACAGCGUGGCAAAGUUGAUGUGGCUAGACAGCC, the self-cleavage is reported as 0.02.
With GGCAGAGCUAGACACAGCGUGGCAAAGUGGCUGUGGCUAGACUUCC the self-cleavage was 0.
GGCAGAGCUCAACACAGCGUGACAAAGUGUCUGUGGCUAUACUGCC showed a self-cleavage of 0.17.
For GGAUGAGCUCACCACAGCCUGGAAAAGUGGGUGCGGCUCGACUGCC, the self-cleavage was 0.
GACAGAGCUCAACACAGCGGGCCAAAGUGGCUGUGGCUAGACUGCC showed a self-cleavage of 1.46.
GGCAUAGCUCAACAAAGCGUGGCAAAGUGGCUGUGGCUAUACUGCC gave a self-cleavage of 0.03.
Variant CGCAGAGCUAAACACAGCGUGGCCAAGUGGCUGUGGCUAGACUCCC has a self-cleavage of 0.01.
GGCAGAGCUCAACCCAGCGUGGCAAAGUGGCUGUUGCUAGACUGCA showed a self-cleavage of 0.04.
Variant GGCAGAGCUCAACACAGCGCGGCAAAGUGGAUGUGGCUGGACUGCC has a self-cleavage of 0.03.
GGCUGAGCUCAACACAGCGUGGCAAAGUGGCUGCGCCUUGACUGCC showed a self-cleavage of 0.09.
For GUCAGAUCUCAACACAGCGUGACAAAGUCGCUGUGGCUAGACUGCC, the self-cleavage was 0.02.
GGCAGAGCUCACCACAGCCUGGCAAAGUAGCUGUGGCUAGAUUGCC gave a self-cleavage of 0.
For GGCAGAGCUCAACACAGCGUGGCAAAGUGACUGUGGCUGGACCGCC, the self-cleavage was 0.08.
GGCCGAGCUCAAAACAGCGUUGCAAAGUGGCUGUGGCUAGAUUGCC showed a self-cleavage of 0.58.
Work on GGCAGAGAUCAAAACAGGGUGGCCAAGUGGCUGUGUCUAGACUGCC yielded a self-cleavage of 0.27.
GGCAGUGCUCAACACAGCGUUGUAAAGUGGCUGUGGCUAGACUGCC gave a self-cleavage of 0.61.
Work on GGCUGCGCUCCACUCAGCGUGGCAAAGUGGCUGUGGCUAGACUGCC yielded a self-cleavage of 0.01.
With GGCAGAGCUCAACACAGCGUGGGAAACUGGCUGUGGCUACACUGCC the self-cleavage was 0.03.
For GACAGAGCUCAACACAGCGUGGCAAAGUGGGUGUGGUUAGACUGCC, the self-cleavage was 0.13.
GGCAGAGCAGAACACAGCGUGGCAAAGUGGCUGUGGCUAUACUGCC showed a self-cleavage of 0.01.
Variant GGAAGAGCUCGACACAGCGUGGCAAAGUGGCUGUGGCUAGACUGCA has a self-cleavage of 0.01.
Work on GGCAGAGCUCGACACAGCGUGGCAAAGUUGCAGUGGCUAGACUGCC yielded a self-cleavage of 0.01.
With GGCAGAGCUCAACACAGGGUGGCAAAGUGUCUGUCGCUAGACUGCG the self-cleavage was 0.01.
GGCUGAGCUCAACACAACGUGGCUAAGUGGCUGUGGCUAGACUGCC gave a self-cleavage of 0.06.
With GGCAGAGCUCAACAGAGCGUGGCAAAGUGGCUAUUGCUAGACUGCC the self-cleavage was 0.02.
For GGCAGAGCUCAACAUAGUGUGGCAACGUGGCAGUGGCUAGACUUCC, the self-cleavage was 0.02.
For GGCAGAGCUCUACACAGAGUGGCAAAGUGGCUGUGGCUUGACUGCC, the self-cleavage was 0.01.
With GGCAGCGCUCACCACAGCGUGGCACAGUGGCUGUGGCUAGACUGCU the self-cleavage was 0.03.
GGCAGAGCCCAACACAGCGUGCCAAAGAGGCUGUGGCUAUACUGCC gave a self-cleavage of 0.06.
Variant GACAGAGCUCGUCACAGCGUGGAAAAGUGGCUGUGGCUAGACUGCU has a self-cleavage of 0.
In the case of GGCAGAGCUCAAAACAGCGAGGCAAAGUGACUGUGGCUAGACUGCC, the self-cleavage is reported as 0.07.
For GGCAGAGCUCAACACAACAUGUCAAAGUGGCUGUGGCUAGACUGCC, the self-cleavage was 2.84.
Variant GGCAGAGCUCAACACAGCGUGGCAAAGUGGCAGUGUCCAGACUGUC has a self-cleavage of 0.01.
GGCUGAGCUCAACACAGCGUGGCAGUAUGGCUGUGACUAGAGUGCU gave a self-cleavage of 0.
Work on GGCAUAGCUCAACACAGCUUAGCAAAGUUGCUGCGGCUAGACUGCC yielded a self-cleavage of 0.01.
Variant GGCAGAGCUCAACACAGCGUGACUAAGUGUCUGUGGCUUCACAGCA has a self-cleavage of 0.05.
With UGCAGAGCUCAACACAGCGUUGCAAAGUGGCUGUGGCUACACUGCC the self-cleavage was 0.03.
Work on GGCCUAGCUCACCGCAGCGUCGCAAAGUGGCUGUGGCUAGAAUGCC yielded a self-cleavage of 0.04.
Variant GGCAGAGCUCAACACAGCGUGGCAUGGUAGCUGUAGCUAGACUGCC has a self-cleavage of 0.01.
GGCAGGGCUCAACACAGCGUAGCAAAGUGGCUGUGGCUAGGCUGCC gave a self-cleavage of 0.22.
Work on GGUAGUCAUCAGCACGGCGUGGCAAAGUGGCUGUGGCUAGACUGCC yielded a self-cleavage of 0.24.
Work on GGCAGAGCUAAACACAGCGUGGCAAAGCGGCAGUGUCUAGACUGCC yielded a self-cleavage of 0.
For GGCAGAUCUCAACACACCGUUGCAAAGUGGCUGUGGCUAGACUGUC, the self-cleavage was 0.33.
With GGCAGAGCUCAACGCAGCGUGGCAAAGUGGCUGUGGCCAGAUUGCC the self-cleavage was 0.03.
For GGCAGAGCUCCACACAGCGCGGAAAAGUGGCUGUGGCUAGACUGCU, the self-cleavage was 0.05.
With CGCAGAGCUCAUCACAGCGUGGCAAAGUGGCUGUGGCUAGACUUCC the self-cleavage was 0.
GGGAGAGCUGAACACAGCGUGGCGAAGUGGAUGUGGCUAGACUGCC showed a self-cleavage of 0.01.
